This is one part of the list.
B1: chr19:42297191:42297292:-|CDS|ENSG00000079462|unk|FALSE|unique (ssRNA)
RNA: GGGAGUUCUACAGUCCGACGAUCCCGACAGGUGAACGAGCUGGUACGGGCGGCACUGGCUGGCCACCCUCGGGCCCACUUCCUAGAUGCCGACCCUGGCUUUGUGCACUCAGAUGGCACCAUCAGCCAUCAUGACAUGUAUGACAACAGAGGAUUGAGCAUCA
B2: chr10:80519475:80519574:+|3pUTR|ENSG00000108219|msi1_unk|total|mutant (ssRNA)
RNA: GGGAGUUCUACAGUCCGACGAUCAGUGUGGUGUAUACUGGUGGCUGUUGAUGAUGAUUUUUUUUUUUUUACACAAUUCUCUGCCGACCCGGAGAAGAAUGCUUGUGUUUUUCGGAAGUGUGAUGCUUCUCUUUGACUGCCAAACAACAGAGGAUUGAGCAUCA
B3: ENSG00000006715:stop:overlap|stop_codon|ENSG00000006715|stop_codon|NA|stop_codon (ssRNA)
RNA: GGGAGUUCUACAGUCCGACGAUCGCAACAUCUGCAGUGCUAAGAACCGUGGACCAGGAAGUGCAAUUUUGGAGAUGAAAAAAUAGCUCAUUUCUCCUUGUCAGUCUCCUUGUCACCACUCUUUUUGAGACUGUUUUUGCAACACAACAGAGGAUUGAGCAUCA
B4: chr8:76983344:76983445:-|CDS|ENSG00000164751|msi1|total|mutant (ssRNA)
RNA: GGGAGUUCUACAGUCCGACGAUCAGCCACCAGUGGCAAAGAAUGCGCUCUAUGUGGAGAGUGGCCCACCAUGCCUCACACCACCGGAUGUGAGCAUAUUUUCUGUUAUUUCUGUGCUAAGAGCCGUUUCUUAUUUGACGUGUACAACAGAGGAUUGAGCAUCA
B5: ENSG00000143815:stop:overlap|stop_codon|ENSG00000143815|stop_codon|NA|stop_codon (ssRNA)
RNA: GGGAGUUCUACAGUCCGACGAUCGAUUGAUUGGAUGGGAACCUCGACAGGACUCCACAAUACAUUUAGUUGUUAUUCCUUCUUAGUCUUCUCUAGUCUAAUAGUUGUUUAGGCUUUCCUUGUCUCUCAUGACCUUGAUACUUUCAACAGAGGAUUGAGCAUCA
B6: chr6:11183581:11183682:-|3pUTR|ENSG00000111859|msi1|FALSE|unique (ssRNA)
RNA: GGGAGUUCUACAGUCCGACGAUCAAAACAAGAAUGCAUGAUCUCAGAGUGAUUAAAAAAAAAUCAGUGGAAAUAAAUGAUCAUAGAAGGUGCUUUUCAAAACAACUGCUAUUAUAAUUCUCAAAGUCCUACUCUGCCAAAAGACAACAGAGGAUUGAGCAUCA

molecular target: T1, UNK ZnF1-6 (called full-length) (human, UniProt Q9C0B0 30-357); experiment: nsRBNS (natural sequence RNA bind-n-seq); RBNS binding buffer (assumed for nsRBNS): 25 mM Tris pH 7.5, 150 mM KCl, 3 mM MgCl2, 0.01% Triton X-100, 500 ug/ml BSA, 20 U/ml SUPERase-In, 4 C; UNK is unkempt and MSI1 is Musashi-1; names of the RNAs are library labels; protein concentration not given here; high values mean tight binding
T1 sequence: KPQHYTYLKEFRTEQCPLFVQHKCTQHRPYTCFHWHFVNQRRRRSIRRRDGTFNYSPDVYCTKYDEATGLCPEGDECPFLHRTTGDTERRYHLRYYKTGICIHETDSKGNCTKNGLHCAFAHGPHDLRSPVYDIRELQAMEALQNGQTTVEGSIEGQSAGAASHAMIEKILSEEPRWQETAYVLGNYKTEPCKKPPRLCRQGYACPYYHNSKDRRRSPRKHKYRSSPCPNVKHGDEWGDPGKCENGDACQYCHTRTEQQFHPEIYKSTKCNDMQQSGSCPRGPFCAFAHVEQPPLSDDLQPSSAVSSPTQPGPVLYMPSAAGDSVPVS

Compared with B1, B2 is lower in binding signal: 0.764 enrichment R for the first, 0.482 enrichment R for the second.

Going from B3 to B4, the binding signal falls from 0.735 enrichment R to 0.468 enrichment R.

Compared with B5, B6 is lower in binding signal: 0.522 enrichment R for the first, 0.386 enrichment R for the second.

Reference: paper PMC12136788
